This is one part of the list.
Experiments:
Test in all cases: glycan array binding signal (z-score within array); higher = stronger binding
Conditions in all cases: glycan notation: IUPAC condensed, linker removed
[1] = target: Gal(b1-3)GlcNAc(b1-6)[Gal(b1-3)]GalNAc
Summary of the method: (§1)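 The binding signal is a Z-score computed within each array. Data were drawn from 3228 arrays in the Consortium for Functional Glycomics database, restricted to those with a known protein sequence. Scores were averaged over arrays of the same protein sequence at different concentrations or buffers, and over linkers, and negative values can be taken as non-binding.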

Gal(b1-3)GlcNAc6S = target: Gal(b1-3)GlcNAc6S
Summary of the method: as §1

[2] = target: Gal(b1-3)[Fuc(a1-4)]GlcNAc
Summary of the method: as §1

[3] = target: Gal(b1-3)[Fuc(a1-4)]GlcNAc(b1-2)Man
Summary of the method: as §1

[4] = target: Gal(b1-3)[Fuc(a1-4)]GlcNAc(b1-2)Man(a1-3)[Gal(b1-3)[Fuc(a1-4)]GlcNAc(b1-2)Man(a1-6)]Man(b1-4)GlcNAc(b1-4)[Fuc(a1-6)]GlcNAc
Summary of the method: as §1

[5] = target: Gal(b1-3)[Fuc(a1-4)]GlcNAc(b1-3)Gal(b1-3)[Fuc(a1-4)]GlcNAc
Summary of the method: as §1

[6] = target: Gal(b1-3)[Fuc(a1-4)]GlcNAc(b1-3)Gal(b1-4)[Fuc(a1-3)]GlcNAc
Summary of the method: as §1

[7] = target: Gal(b1-3)[Fuc(a1-4)]GlcNAc(b1-6)GalNAc
Summary of the method: as §1

[8] = target: Gal(b1-3)[GlcNAc(b1-6)]GalNAc
Summary of the method: as §1

[9] = target: Gal(b1-3)[Neu5Ac(a2-6)]GalNAc
Summary of the method: as §1

[10] = target: Gal(b1-3)[Neu5Ac(a2-6)]GlcNAc(b1-4)Gal(b1-4)Glc
Summary of the method: as §1

[11] = target: Gal(b1-3)[Neu5Ac(b2-6)]GalNAc
Summary of the method: as §1

Gal(b1-4)Gal = target: Gal(b1-4)Gal
Summary of the method: as §1

[12] = target: Gal(b1-4)GalNAc(a1-3)[Fuc(a1-2)]Gal(b1-4)GlcNAc
Summary of the method: as §1

[13] = target: Gal(b1-4)GalNAc(b1-3)[Fuc(a1-2)]Gal(b1-4)GlcNAc
Summary of the method: as §1

Gal(b1-4)Glc = target: Gal(b1-4)Glc
Summary of the method: as §1

Gal(b1-4)Glc6S = target: Gal(b1-4)Glc6S
Summary of the method: as §1

Gal(b1-4)GlcNAc = target: Gal(b1-4)GlcNAc
Summary of the method: as §1

[14] = target: Gal(b1-4)GlcNAc(a1-6)Gal(b1-4)GlcNAc
Summary of the method: as §1

Gal(b1-4)GlcNAc(b1-2)Man = target: Gal(b1-4)GlcNAc(b1-2)Man
Summary of the method: as §1

[15] = target: Gal(b1-4)GlcNAc(b1-2)Man(a1-3)Man(b1-4)GlcNAc(b1-4)GlcNAc
Summary of the method: as §1

[16] = target: Gal(b1-4)GlcNAc(b1-2)Man(a1-3)[Gal(b1-4)GlcNAc(b1-2)Man(a1-6)]Man(b1-4)GlcNAc(b1-4)GlcNAc
Summary of the method: as §1

[17] = target: Gal(b1-4)GlcNAc(b1-2)Man(a1-3)[Gal(b1-4)GlcNAc(b1-2)Man(a1-6)]Man(b1-4)GlcNAc(b1-4)[Fuc(a1-6)]GlcNAc
Summary of the method: as §1

[18] = target: Gal(b1-4)GlcNAc(b1-2)Man(a1-3)[Gal(b1-4)GlcNAc(b1-2)Man(a1-6)][Gal(b1-4)GlcNAc(b1-4)]Man(b1-4)GlcNAc(b1-4)[Fuc(a1-6)]GlcNAc
Summary of the method: as §1

[19] = target: Gal(b1-4)GlcNAc(b1-2)Man(a1-3)[Gal(b1-4)GlcNAc(b1-2)Man(a1-6)][GlcNAc(b1-4)]Man(b1-4)GlcNAc(b1-4)[Fuc(a1-6)]GlcNAc
Summary of the method: as §1

[20] = target: Gal(b1-4)GlcNAc(b1-2)Man(a1-3)[GlcNAc(b1-2)Man(a1-6)]Man(b1-4)GlcNAc(b1-4)GlcNAc
Summary of the method: as §1

[21] = target: Gal(b1-4)GlcNAc(b1-2)Man(a1-3)[GlcNAc(b1-4)][Gal(b1-4)GlcNAc(b1-2)Man(a1-6)]Man(b1-4)GlcNAc(b1-4)GlcNAc
Summary of the method: as §1

[22] = target: Gal(b1-4)GlcNAc(b1-2)Man(a1-3)[Man(a1-6)]Man(b1-4)GlcNAc(b1-4)GlcNAc
Summary of the method: as §1

[23] = target: Gal(b1-4)GlcNAc(b1-2)Man(a1-6)Man(b1-4)GlcNAc(b1-4)GlcNAc
Summary of the method: as §1

[24] = target: Gal(b1-4)GlcNAc(b1-2)Man(a1-6)[GlcNAc(b1-2)Man(a1-3)]Man(b1-4)GlcNAc(b1-4)GlcNAc
Summary of the method: as §1

[25] = target: Gal(b1-4)GlcNAc(b1-2)Man(a1-6)[Man(a1-3)]Man(b1-4)GlcNAc(b1-4)GlcNAc
Summary of the method: as §1

[26] = target: Gal(b1-4)GlcNAc(b1-2)[Gal(b1-4)GlcNAc(b1-4)]Man(a1-3)[Gal(b1-4)GlcNAc(b1-2)Man(a1-6)]Man(b1-4)GlcNAc(b1-4)GlcNAc
Summary of the method: as §1

[27] = target: Gal(b1-4)GlcNAc(b1-2)[Gal(b1-4)GlcNAc(b1-4)]Man(a1-3)[Gal(b1-4)GlcNAc(b1-2)[Gal(b1-4)GlcNAc(b1-6)]Man(a1-6)]Man(b1-4)GlcNAc(b1-4)GlcNAc
Summary of the method: as §1

[28] = target: Gal(b1-4)GlcNAc(b1-2)[Gal(b1-4)GlcNAc(b1-4)]Man(a1-3)[GlcNAc(b1-4)][Gal(b1-4)GlcNAc(b1-2)Man(a1-6)]Man(b1-4)GlcNAc(b1-4)GlcNAc
Summary of the method: as §1

[29] = target: Gal(b1-4)GlcNAc(b1-2)[Gal(b1-4)GlcNAc(b1-4)]Man(a1-3)[GlcNAc(b1-4)][Gal(b1-4)GlcNAc(b1-2)[Gal(b1-4)GlcNAc(b1-6)]Man(a1-6)]Man(b1-4)GlcNAc(b1-4)GlcNAc
Summary of the method: as §1

[30] = target: Gal(b1-4)GlcNAc(b1-2)[Gal(b1-4)GlcNAc(b1-6)]Man(a1-6)[Gal(b1-4)GlcNAc(b1-2)Man(a1-3)]Man(b1-4)GlcNAc(b1-4)GlcNAc
Summary of the method: as §1

[31] = target: Gal(b1-4)GlcNAc(b1-2)[Gal(b1-4)GlcNAc(b1-6)]Man(a1-6)[Gal(b1-4)GlcNAc(b1-2)Man(a1-3)]Man(b1-4)GlcNAc(b1-4)[Fuc(a1-6)]GlcNAc
Summary of the method: as §1

B1: PX14375l-pdi-526-25-526 (Parabacteroides distasonis) (protein)
chain: DEEPKSTLTDVAYYKTQSQMESNVNYLYRTGAIGSYVDFGSAYIGPFASIQEELTGYFSNSYEGQEIVCRYTRELTRQQNTMQLASKMDKVWDDCYRGINVANGAIKHMPEVPMDQATADRLTAEAKFFRAFNYFYLVKTFGAVPFYTDPYELAENMELPRTETSTIYNQIESDLKDAMNVLPEATFAANGHRITKYVAAMTLTDVYMYQHKYAEAAETVRIVVNSNHKLTTNDDLAMNSAFNKLRSTDDLDEAIYAYEYDNQISPSNWLPTYAFDGDASSNGLFGTYAITQKVHGPNDRYLNIYESNDLRRQPNQFYHWTYTNPKTGKVWNSVGNAACCWYYYDEDALLTTGRGTKDWNVYRYAEALLDAAESIAQSTGVTAEAAGYLAQVKARANMEGKTAAEIASSLQSMGKQAFIEECWTERLRELPLEFKMWDMCVRTGMFPNISETTPGQVTYIPLVGAKNASGATIKESDLLWPLSVNEIQRNPSLTQNEGYSAK
glycan array binding signal (z-score) [1]: -0.174
glycan array binding signal (z-score) (Gal(b1-3)GlcNAc6S): -0.287
glycan array binding signal (z-score) [2]: -0.263
glycan array binding signal (z-score) [3]: -0.015
glycan array binding signal (z-score) [4]: -0.079
glycan array binding signal (z-score) [5]: -0.258
glycan array binding signal (z-score) [6]: -0.475
glycan array binding signal (z-score) [7]: -0.037
glycan array binding signal (z-score) [8]: -0.18
glycan array binding signal (z-score) [9]: -0.246
glycan array binding signal (z-score) [10]: -0.125
glycan array binding signal (z-score) [11]: -0.364
glycan array binding signal (z-score) (Gal(b1-4)Gal): -0.301
glycan array binding signal (z-score) [12]: -0.264
glycan array binding signal (z-score) [13]: -0.426
glycan array binding signal (z-score) (Gal(b1-4)Glc): -0.278
glycan array binding signal (z-score) (Gal(b1-4)Glc6S): 0.008
glycan array binding signal (z-score) (Gal(b1-4)GlcNAc): -0.278
glycan array binding signal (z-score) [14]: -0.208
glycan array binding signal (z-score) (Gal(b1-4)GlcNAc(b1-2)Man): -0.261
glycan array binding signal (z-score) [15]: -0.24
glycan array binding signal (z-score) [16]: 0.095
glycan array binding signal (z-score) [17]: 0.272
glycan array binding signal (z-score) [18]: 0.887
glycan array binding signal (z-score) [19]: -0.272
glycan array binding signal (z-score) [20]: 0.478
glycan array binding signal (z-score) [21]: -0.265
glycan array binding signal (z-score) [22]: -0.408
glycan array binding signal (z-score) [23]: -0.54
glycan array binding signal (z-score) [24]: 0.643
glycan array binding signal (z-score) [25]: 0.071
glycan array binding signal (z-score) [26]: -0.294
glycan array binding signal (z-score) [27]: -0.304
glycan array binding signal (z-score) [28]: -0.115
glycan array binding signal (z-score) [29]: 3.87
glycan array binding signal (z-score) [30]: -0.168
glycan array binding signal (z-score) [31]: -0.202
